# Test results: the supplement of paper PMC3334620
# In all, about 33,000 sequences were measured (“E-score (-0.5 to 0.5)”: median about -0.016, highest 2% from about 0.31 on). This is one part of the list.
# Molecular target: Cst6 (UniProt P40535)
# Assay: PBM E-score (8-mer binding enrichment) (E-score (-0.5 to 0.5)); higher = stronger / more preferred TF binding; most listed sequences are background and not binding sites
# Conditions: protein concentration: 200 nM; construct: GST-DNA-binding domain
# Procedure, shortened: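 Universal all-10-mer Agilent arrays, fresh or stripped once, were converted to double-stranded form by primer extension. GST-tagged yeast transcription factors from PURExpress in vitro transcription/translation, full-length or DNA-binding domain only, were applied at about 100-200 nM and detected with fluorescent anti-GST. After masliner normalisation, the Universal PBM Analysis Suite scored each ungapped eight-base word together with its reverse complement by E-score.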
row,Sequence,PBM E-score
1,CAGTGCGC,-0.299
2,ACATGTTA,0.114
3,CTAGTATC,-0.0254
4,AACATACT,0.0822
5,CATAAGCA,-0.0945
6,TAACACCA,0.143
7,CTATATGC,0.00303
8,CGACGCTA,-0.0616
9,AGCCGAGG,-0.081
10,AATTTGAA,0.0886
11,GATCTAGC,-0.152
12,CCGATAAG,-0.0428
13,TCTCGAGA,-0.0075
14,AGGTCTAT,-0.123
15,AGATCAAT,0.0915
16,GCTTATAA,0.153
17,ACCGCAGA,-0.141
18,CTCACGAC,-0.0959
19,AAGGCTGG,-0.148
20,CCCAAAAG,-0.0807
21,AGTGGAGA,-0.00399
22,ATAGTGGC,-0.0079
23,ATAGGGGG,-0.398
24,ACGACAGT,0.0713

row,Sequence,PBM E-score
1,AATACTCA,0.185
2,TACGCGCA,0.0423
3,AGTCTGGC,-0.297
4,CGAACATC,-0.027
5,GTCCCAGA,-0.299
6,CCCGTGCA,-0.125
7,CCTCAGAG,-0.248
8,AGCCTTAG,-0.0338
9,AGGTGTGC,-0.206
10,ACATTATG,0.221
11,GATTGAAA,0.163
12,CTATCTGA,-0.217
13,GCCGTCGC,0.0532
14,ACGCTTTA,-0.136
15,TAATCTGA,0.146
16,CGATTTCC,-0.0257
17,CAGGTCAC,-0.192
18,GGCAGATA,-0.0889
19,CCCACCGA,-0.131
20,GTAGTACA,-0.0107
21,ATCACGAT,0.162
22,ACGCTAAG,-0.08
23,GGACAGGA,-0.186
24,ATCGAAGG,0.0082

row,Sequence,PBM E-score
1,GTGTGAAA,0.259
2,AACTTGAG,-0.263
3,ATGTGCTA,0.0373
4,AGTAACTC,-0.0124
5,GTCCCACA,-0.0855
6,CATCCACA,-0.0043
7,CGACCATC,-0.247
8,GGTGAAAC,0.0242
9,TCAGATCA,0.115
10,GTACGAGA,-0.0827
11,ACATGACC,0.007
12,AGTAAGAC,0.0965
13,GAAACTCC,-0.395
14,CTTTTATC,0.0238
15,ATTTCGAA,0.175
16,CTTGTCCC,0.00557
17,CAGGCGAC,-0.0995
18,AGTGTGGG,-0.0648
19,GGCGATTA,0.188
20,AGCAAAGG,0.0127
21,AATGCTAA,0.0492
22,ACGCAGAG,0.018
23,GGTTAAGA,-0.0367
24,ATCTCGTA,0.194

row,Sequence,PBM E-score
1,AACGGAGT,0.0494
2,ACGTAAGC,0.381
3,CGAGGTGC,-0.0095
4,GCTAGCTA,0.0346
5,GGTTAGAA,-0.139
6,TACTAGAA,0.149
7,AGCAAATA,0.113
8,GGCTCTAA,0.0964
9,CAAGGGTC,-0.169
10,CGTAACGC,0.185
11,AGGTCAAG,-0.0961
12,CCCGCTTA,-0.00656
13,GCAGCTCC,-0.303
14,CAGCCATG,-0.16
15,GTTGCGTA,0.264
16,CGAAATAC,0.194
17,AAGCTATA,0.0756
18,CGGTATTC,-0.0796
19,AAAGTTAT,0.281
20,CCAGATAG,-0.0711
21,GGTATGAA,-0.046
22,GGGTTGCA,-0.0507
